Experimental findings from the supplement of paper PMC6657886 are described below.

One may read the MIC as the lowest concentration that inhibits growth of the organism.

Common to all, as to assay: Agar dilution on enriched GC agar; resistance determinants by microarray.
For orientation: In agar dilution the substance is mixed into plates at graded concentrations.

Compound in one test: CO/N=C(\C(=O)N[C@@H]1C(=O)N2C(C(=O)O)=C(CSc3nc(=O)c(O)nn3C)CS[C@H]12)c1csc(N)n1 [ceftriaxone]
Compound in a further test: CN(C)[C@@H]1C(O)=C(C(N)=O)C(=O)[C@@]2(O)C(O)=C3C(=O)c4c(O)cccc4[C@@](C)(O)[C@H]3C[C@@H]12 [tetracycline]
Compound in a further test: CC1(C)S[C@@H]2[C@H](NC(=O)Cc3ccccc3)C(=O)N2[C@H]1C(=O)O [benzylpenicillin]
Compound in another test: CN[C@@H]1[C@H](O)[C@H](NC)[C@H]2O[C@@]3(O)C(=O)C[C@@H](C)O[C@H]3O[C@@H]2[C@H]1O [spectinomycin]
Compound in the next test: CC[C@H]1OC(=O)[C@H](C)[C@@H](O[C@H]2C[C@@](C)(OC)[C@@H](O)[C@H](C)O2)[C@H](C)[C@@H](O[C@@H]2O[C@H](C)C[C@H](N(C)C)[C@H]2O)[C@](C)(O)C[C@@H](C)CN(C)[C@H](C)[C@@H](O)[C@]1(C)O [azithromycin]

MIC of clinical N. gonorrhoeae isolates (2015-2017) by agar dilution on GC agar with 1% IsoVitaleX (ranges not stated); higher = less susceptible. No active / inactive call per row; the paper counts benzylpenicillin above 1 and ceftriaxone above 0.125 mg/L as resistant (EUCAST). The method is stated for benzylpenicillin and ceftriaxone and assumed for the other drugs. '<=' is inferred from pile-ups at the end values. Isolates are numbered anew.

As for “Neisseria gonorrhoeae isolate 20 (blaTEM plasmid: no, gyrA: wild type, mtrR promoter: wild type, parC: wild type, penA: ins345Asp, ponA: wild type, porB: wild type, rpsJ: wild type, tetM plasmid: no)”, the MIC in the test with ceftriaxone was 8 ng/mL; with tetracycline, 0.12 mg/L; with benzylpenicillin, 0.06 mg/L; with spectinomycin, 16 mg/L; with azithromycin, 0.12 mg/L.

For “Neisseria gonorrhoeae isolate 489 (blaTEM plasmid: no, gyrA: Phe91, Asn 95, mtrR promoter: -35delA, parC: wild type, penA: ins345Asp, ponA: Pro421, porB: Asn120, Asp121, rpsJ: Met57, tetM plasmid: no)”, the MIC with ceftriaxone is 30 ng/mL; with tetracycline it was 1 mg/L; in the test with benzylpenicillin, 1 mg/L; with spectinomycin it was 16 mg/L; in the test with azithromycin it was 0.25 mg/L.

With “Neisseria gonorrhoeae isolate 478 (blaTEM plasmid: no, gyrA: wild type, mtrR promoter: wild type, parC: wild type, penA: ins345Asp, ponA: wild type, porB: wild type, rpsJ: wild type, tetM plasmid: no)”, the MIC with ceftriaxone is no more than 2 ng/mL; with tetracycline, 0.25 mg/L; in the test with benzylpenicillin it was 0.06 mg/L; in the test with spectinomycin it was 16 mg/L; with azithromycin, 0.06 mg/L.

Consider “Neisseria gonorrhoeae isolate 198 (blaTEM plasmid: no, gyrA: wild type, mtrR promoter: wild type, parC: wild type, penA: wild type, ponA: wild type, porB: wild type, rpsJ: wild type, tetM plasmid: no)”, for which the MIC with ceftriaxone is no more than 2 ng/mL; with tetracycline it was 0.12 mg/L; with benzylpenicillin, no more than 0.015 mg/L; in the test with spectinomycin it was 16 mg/L; with azithromycin, 0.12 mg/L.

On to “Neisseria gonorrhoeae isolate 145 (blaTEM plasmid: yes, gyrA: Phe91, Asp95, mtrR promoter: wild type, parC: wild type, penA: ins345Asp, ponA: wild type, porB: wild type, rpsJ: Met57, tetM plasmid: yes)”, for which the MIC in the test with ceftriaxone is no more than 2 ng/mL; in the test with tetracycline, 16 mg/L; with benzylpenicillin, no less than 32 mg/L; in the test with spectinomycin, 16 mg/L; in the test with azithromycin, 0.06 mg/L.

“Neisseria gonorrhoeae isolate 164 (blaTEM plasmid: no, gyrA: wild type, mtrR promoter: wild type, parC: wild type, penA: ins345Asp, ponA: wild type, porB: wild type, rpsJ: wild type, tetM plasmid: no)”: the MIC in the test with ceftriaxone turned out to be 125 ng/mL; with tetracycline, 4 mg/L; in the test with benzylpenicillin it was 1 mg/L; with spectinomycin it was 16 mg/L; with azithromycin, 0.5 mg/L.

In the case of “Neisseria gonorrhoeae isolate 498 (blaTEM plasmid: no, gyrA: wild type, mtrR promoter: wild type, parC: wild type, penA: ins345Asp, ponA: wild type, porB: wild type, rpsJ: wild type, tetM plasmid: no)”, the minimal inhibitory concentration (MIC) with ceftriaxone was 4 ng/mL; with tetracycline it was 0.12 mg/L; in the test with benzylpenicillin, no more than 0.015 mg/L; with spectinomycin it was 32 mg/L; in the test with azithromycin, 0.008 mg/L.

“Neisseria gonorrhoeae isolate 226 (blaTEM plasmid: no, gyrA: Thr91, Gly95, mtrR promoter: -35delA, parC: wild type, penA: wild type, ponA: wild type, porB: wild type, rpsJ: wild type, tetM plasmid: no)”: the MIC with ceftriaxone was no more than 2 ng/mL; with tetracycline, 0.12 mg/L; with benzylpenicillin it was 0.25 mg/L; in the test with spectinomycin, 16 mg/L; with azithromycin it was 0.06 mg/L.

As to “Neisseria gonorrhoeae isolate 117 (blaTEM plasmid: no, gyrA: Phe91, Gly95, mtrR promoter: wild type, parC: Arg87, Glu91, penA: ins345Asp, ponA: Pro421, porB: Asp120, Ala121, rpsJ: Met57, tetM plasmid: no)”, the MIC came out at 15 ng/mL with ceftriaxone; 0.5 mg/L with tetracycline; 0.25 mg/L in the test with benzylpenicillin; 32 mg/L with spectinomycin; 0.015 mg/L with azithromycin.

“Neisseria gonorrhoeae isolate 277 (blaTEM plasmid: no, gyrA: wild type, mtrR promoter: wild type, parC: wild type, penA: ins345Asp, ponA: Pro421, porB: Lys 120, Asp121, rpsJ: wild type, tetM plasmid: no)”: the MIC in the test with ceftriaxone was determined as 8 ng/mL; in the test with tetracycline it was 2 mg/L; in the test with benzylpenicillin it was 0.5 mg/L; in the test with spectinomycin, 32 mg/L; with azithromycin, 0.5 mg/L.

Turning to “Neisseria gonorrhoeae isolate 263 (blaTEM plasmid: no, gyrA: wild type, mtrR promoter: wild type, parC: wild type, penA: ins345Asp, ponA: wild type, porB: wild type, rpsJ: wild type, tetM plasmid: no)”, the MIC with ceftriaxone is 4 ng/mL; with tetracycline, 0.25 mg/L; with benzylpenicillin, 0.12 mg/L; with spectinomycin, 32 mg/L; with azithromycin, 0.015 mg/L.

As to “Neisseria gonorrhoeae isolate 165 (blaTEM plasmid: no, gyrA: wild type, mtrR promoter: wild type, parC: wild type, penA: ins345Asp, ponA: wild type, porB: wild type, rpsJ: Met57, tetM plasmid: no)”, the MIC with ceftriaxone was no more than 2 ng/mL; with tetracycline, 0.5 mg/L; with benzylpenicillin, no more than 0.015 mg/L; with spectinomycin, 32 mg/L; with azithromycin it was 0.12 mg/L.

In the case of “Neisseria gonorrhoeae isolate 513 (blaTEM plasmid: no, gyrA: Thr91, Gly95, mtrR promoter: wild type, parC: wild type, penA: wild type, ponA: Pro421, porB: wild type, rpsJ: wild type, tetM plasmid: no)”, the MIC is no more than 2 ng/mL in the test with ceftriaxone; 0.5 mg/L with tetracycline; 0.06 mg/L in the test with benzylpenicillin; 16 mg/L with spectinomycin; 0.12 mg/L with azithromycin.

As for “Neisseria gonorrhoeae isolate 297 (blaTEM plasmid: no, gyrA: Thr91, Gly95, mtrR promoter: wild type, parC: wild type, penA: ins345Asp, ponA: wild type, porB: wild type, rpsJ: wild type, tetM plasmid: no)”, the MIC with ceftriaxone is no more than 2 ng/mL; with tetracycline, 0.5 mg/L; with benzylpenicillin, 0.06 mg/L; with spectinomycin, 16 mg/L; in the test with azithromycin, 0.06 mg/L.

With “Neisseria gonorrhoeae isolate 344 (blaTEM plasmid: no, gyrA: wild type, mtrR promoter: wild type, parC: wild type, penA: ins345Asp, ponA: wild type, porB: wild type, rpsJ: wild type, tetM plasmid: no)”, the MIC in the test with ceftriaxone was 4 ng/mL; with tetracycline, 0.25 mg/L; in the test with benzylpenicillin, 0.06 mg/L; with spectinomycin, 32 mg/L; with azithromycin, 0.12 mg/L.

For the test system “Neisseria gonorrhoeae isolate 249 (blaTEM plasmid: no, gyrA: Phe91, Asn 95, mtrR promoter: wild type, parC: wild type, penA: ins345Asp, ponA: wild type, porB: Asp120, Gly121, rpsJ: Met57, tetM plasmid: yes)”, the MIC with ceftriaxone was no more than 2 ng/mL; with tetracycline, 16 mg/L; with benzylpenicillin it was 0.5 mg/L; with spectinomycin, 16 mg/L; with azithromycin it was 0.12 mg/L.

Regarding “Neisseria gonorrhoeae isolate 399 (blaTEM plasmid: no, gyrA: wild type, mtrR promoter: wild type, parC: wild type, penA: ins345Asp, ponA: wild type, porB: wild type, rpsJ: wild type, tetM plasmid: no)”, the minimal inhibitory concentration (MIC) with ceftriaxone was no more than 2 ng/mL; in the test with tetracycline, 0.06 mg/L; in the test with benzylpenicillin, no more than 0.015 mg/L; with spectinomycin, 8 mg/L; in the test with azithromycin it was 0.06 mg/L.

As for “Neisseria gonorrhoeae isolate 407 (blaTEM plasmid: no, gyrA: Phe91, Asn 95, mtrR promoter: -35delA, parC: wild type, penA: wild type, ponA: Pro421, porB: Asn120, Asp121, rpsJ: Met57, tetM plasmid: no)”, the MIC in the test with ceftriaxone stood at 30 ng/mL; with tetracycline, 1 mg/L; in the test with benzylpenicillin it was 1 mg/L; in the test with spectinomycin it was 16 mg/L; with azithromycin, 0.25 mg/L.

Turning to “Neisseria gonorrhoeae isolate 72 (blaTEM plasmid: no, gyrA: wild type, mtrR promoter: wild type, parC: wild type, penA: wild type, ponA: wild type, porB: wild type, rpsJ: wild type, tetM plasmid: no)”, the MIC with ceftriaxone is no more than 2 ng/mL; in the test with tetracycline it was 0.06 mg/L; with benzylpenicillin it was no more than 0.015 mg/L; with spectinomycin it was 16 mg/L; with azithromycin it was 0.06 mg/L.

Turning to “Neisseria gonorrhoeae isolate 404 (blaTEM plasmid: no, gyrA: Phe91, Asn 95, mtrR promoter: wild type, parC: Arg 87, Glu91, penA: ins345Asp, ponA: Pro421, porB: wild type, rpsJ: Met57, tetM plasmid: no)”, the MIC with ceftriaxone was determined as 4 ng/mL; in the test with tetracycline, 1 mg/L; in the test with benzylpenicillin, 0.25 mg/L; with spectinomycin it was 32 mg/L; in the test with azithromycin it was 0.06 mg/L.

For “Neisseria gonorrhoeae isolate 293 (blaTEM plasmid: no, gyrA: Thr91, Gly95, mtrR promoter: wild type, parC: wild type, penA: ins345Asp, ponA: wild type, porB: Asp120, Gly121, rpsJ: Met57, tetM plasmid: no)”, the MIC turned out to be 15 ng/mL with ceftriaxone; 1 mg/L with tetracycline; 1 mg/L with benzylpenicillin; 32 mg/L with spectinomycin; 0.5 mg/L with azithromycin.

On to “Neisseria gonorrhoeae isolate 336 (blaTEM plasmid: no, gyrA: wild type, mtrR promoter: wild type, parC: wild type, penA: wild type, ponA: wild type, porB: wild type, rpsJ: wild type, tetM plasmid: no)”, for which the MIC was no more than 2 ng/mL with ceftriaxone; 0.25 mg/L in the test with tetracycline; no more than 0.015 mg/L with benzylpenicillin; 32 mg/L with spectinomycin; 0.12 mg/L with azithromycin.

On to “Neisseria gonorrhoeae isolate 310 (blaTEM plasmid: no, gyrA: Thr91, Gly95, mtrR promoter: -35delA, parC: Arg87, Glu91, penA: ins345Asp, ponA: Pro421, porB: wild type, rpsJ: Met57, tetM plasmid: no)”, for which the MIC in the test with ceftriaxone worked out at 15 ng/mL; with tetracycline, 1 mg/L; with benzylpenicillin, 1 mg/L; in the test with spectinomycin it was 32 mg/L; with azithromycin, 0.5 mg/L.

Turning to “Neisseria gonorrhoeae isolate 36 (blaTEM plasmid: yes, gyrA: wild type, mtrR promoter: wild type, parC: wild type, penA: ins345Asp, ponA: wild type, porB: Lys 120, Gly121, rpsJ: wild type, tetM plasmid: no)”, the MIC with ceftriaxone was no more than 2 ng/mL; with tetracycline, 0.5 mg/L; with benzylpenicillin, no less than 32 mg/L; in the test with spectinomycin, 16 mg/L; in the test with azithromycin it was 0.03 mg/L.

Take “Neisseria gonorrhoeae isolate 86 (blaTEM plasmid: no, gyrA: wild type, mtrR promoter: wild type, parC: wild type, penA: wild type, ponA: wild type, porB: wild type, rpsJ: wild type, tetM plasmid: no)”: the MIC with ceftriaxone was no more than 2 ng/mL; with tetracycline, 0.25 mg/L; in the test with benzylpenicillin, no more than 0.015 mg/L; in the test with spectinomycin, 32 mg/L; with azithromycin it was 0.12 mg/L.
